# Assay results reported in the supplement of paper PMC8728848.
# This is one part of the list.
# B1: GS7807P-bth-537-23-537 (Bacteroides thetaiotaomicron) (protein)
# chain: NYENINSNPYEAPDLSADGYALGSAMNNLAGCVVSPDVNTAQFTDCLLGGPLGGYFADSNAGFTETISNFNPKDDWSRVFLKSDKIIPTLYSNLTQVKLVSQNTNDPVPYAIAQVIKVAAMHRVTDAFGPIPYSQIGANGEIATPYDSQEVTYNTFFDELNAAIATLNENSNEQLVPTADYIYKGDVKKWIRFANSLKLRLAIRIAYANPVKAQQMAEEAVNPANGGVIESNADNATWNYFETSQNPIYVATRYNQVQTSDHGGVPCLTGGDTHAAADIICYMNGYKDNRREKFFTKSEWAGQDYVGMRRGIVIPELKTTGHKYSGVNIAPTSPLYWMNAAEVAFLRAEGQAVFNFSMGGTAESFYNQGIRLSFEQWGADGVEDYLKDDVNKPTAYTDPAGTNTYQNALSNITIKWNDSADKEEKQERIIVQKWIANWQLGNEAWADFRRTGYPKLIPVKENKSGGVVDSEKGARRMPYPLDEFVSNKANVEYAIANYLHGADNMATDVWWASKK
# Tests used:
# Experiment in all cases: glycan array binding signal (z-score within array); higher = stronger binding
# Details in all cases: glycan notation: IUPAC condensed, linker removed
# [1] = target: Neu5Ac(a2-3)Gal(b1-4)GlcNAc(b1-6)GalNAc
# How it was run: (§1)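 The binding signal is a Z-score computed within each array and averaged over linkers. Arrays of the same protein sequence at different concentrations or buffers were also averaged together. Data originate from 3228 arrays in the Consortium for Functional Glycomics database, kept only where the protein sequence was available.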
# [2] = target: Neu5Ac(a2-3)Gal(b1-4)GlcNAc(b1-6)[Gal(b1-3)]GalNAc
# How it was run: as §1
# [3] = target: Neu5Ac(a2-3)Gal(b1-4)GlcNAc(b1-6)[Neu5Ac(a2-3)Gal(b1-3)]GalNAc
# How it was run: as §1
# [4] = target: Neu5Ac(a2-3)Gal(b1-4)GlcNAc6S
# How it was run: as §1
# [5] = target: Neu5Ac(a2-3)Gal(b1-4)[Fuc(a1-3)]GlcNAc
# How it was run: as §1
# [6] = target: Neu5Ac(a2-3)Gal(b1-4)[Fuc(a1-3)]GlcNAc(b1-2)Man
# How it was run: as §1
# [7] = target: Neu5Ac(a2-3)Gal(b1-4)[Fuc(a1-3)]GlcNAc(b1-3)Gal
# How it was run: as §1
# [8] = target: Neu5Ac(a2-3)Gal(b1-4)[Fuc(a1-3)]GlcNAc(b1-3)Gal(b1-4)GlcNAc
# How it was run: as §1
# [9] = target: Neu5Ac(a2-3)Gal(b1-4)[Fuc(a1-3)]GlcNAc(b1-3)Gal(b1-4)[Fuc(a1-3)]GlcNAc(b1-3)Gal(b1-4)[Fuc(a1-3)]GlcNAc
# How it was run: as §1
# [10] = target: Neu5Ac(a2-3)Gal(b1-4)[Fuc(a1-3)]GlcNAc(b1-3)GalNAc
# How it was run: as §1
# [11] = target: Neu5Ac(a2-3)Gal(b1-4)[Fuc(a1-3)]GlcNAc(b1-6)[Gal(b1-3)]GalNAc
# How it was run: as §1
# [12] = target: Neu5Ac(a2-3)Gal(b1-4)[Fuc(a1-3)]GlcNAc(b1-6)[Neu5Ac(a2-3)Gal(b1-3)]GalNAc
# How it was run: as §1
# [13] = target: Neu5Ac(a2-3)Gal(b1-4)[Fuc(a1-3)]GlcNAc6S
# How it was run: as §1
# [14] = target: Neu5Ac(a2-3)Gal6S(b1-4)GlcNAc
# How it was run: as §1
# [15] = target: Neu5Ac(a2-3)Gal6S(b1-4)[Fuc(a1-3)]GlcNAc
# How it was run: as §1
# Neu5Ac(a2-3)GalNAc = target: Neu5Ac(a2-3)GalNAc
# How it was run: as §1
# [16] = target: Neu5Ac(a2-3)GalNAc(b1-4)GlcNAc
# How it was run: as §1
# [17] = target: Neu5Ac(a2-3)[GalNAc(b1-4)]Gal(b1-4)Glc
# How it was run: as §1
# [18] = target: Neu5Ac(a2-3)[GalNAc(b1-4)]Gal(b1-4)GlcNAc
# How it was run: as §1
# [19] = target: Neu5Ac(a2-3)[GalNAc(b1-4)]Gal(b1-4)GlcNAc(b1-3)GalNAc
# How it was run: as §1
# [20] = target: Neu5Ac(a2-3)[Neu5Ac(a2-6)]GalNAc
# How it was run: as §1
# Neu5Ac(a2-6)Gal = target: Neu5Ac(a2-6)Gal
# How it was run: as §1
# [21] = target: Neu5Ac(a2-6)Gal(b1-3)GlcNAc(b1-3)[Gal(b1-4)GlcNAc(b1-6)]Gal(b1-4)Glc
# How it was run: as §1
# Neu5Ac(a2-6)Gal(b1-4)Glc = target: Neu5Ac(a2-6)Gal(b1-4)Glc
# How it was run: as §1
# [22] = target: Neu5Ac(a2-6)Gal(b1-4)GlcNAc
# How it was run: as §1
# [23] = target: Neu5Ac(a2-6)Gal(b1-4)GlcNAc(b1-2)Man
# How it was run: as §1
# [24] = target: Neu5Ac(a2-6)Gal(b1-4)GlcNAc(b1-2)Man(a1-3)Man(b1-4)GlcNAc(b1-4)GlcNAc
# How it was run: as §1
# [25] = target: Neu5Ac(a2-6)Gal(b1-4)GlcNAc(b1-2)Man(a1-3)[Gal(b1-4)GlcNAc(b1-2)Man(a1-6)]Man(b1-4)GlcNAc(b1-4)GlcNAc
# How it was run: as §1
# [26] = target: Neu5Ac(a2-6)Gal(b1-4)GlcNAc(b1-2)Man(a1-3)[GlcNAc(b1-2)Man(a1-6)]Man(b1-4)GlcNAc(b1-4)GlcNAc
# How it was run: as §1
# [27] = target: Neu5Ac(a2-6)Gal(b1-4)GlcNAc(b1-2)Man(a1-3)[GlcNAc(b1-4)][Neu5Ac(a2-6)Gal(b1-4)GlcNAc(b1-2)Man(a1-6)]Man(b1-4)GlcNAc(b1-4)GlcNAc
# How it was run: as §1
# [28] = target: Neu5Ac(a2-6)Gal(b1-4)GlcNAc(b1-2)Man(a1-3)[Man(a1-6)]Man(b1-4)GlcNAc(b1-4)GlcNAc
# How it was run: as §1
# [29] = target: Neu5Ac(a2-6)Gal(b1-4)GlcNAc(b1-2)Man(a1-3)[Neu5Ac(a2-3)Gal(b1-4)GlcNAc(b1-2)Man(a1-6)]Man(b1-4)GlcNAc(b1-4)GlcNAc
# How it was run: as §1
# [30] = target: Neu5Ac(a2-6)Gal(b1-4)GlcNAc(b1-2)Man(a1-3)[Neu5Ac(a2-6)Gal(b1-4)GlcNAc(b1-2)Man(a1-6)]Man(b1-4)GlcNAc(b1-4)GlcNAc
# How it was run: as §1
# [31] = target: Neu5Ac(a2-6)Gal(b1-4)GlcNAc(b1-2)Man(a1-3)[Neu5Ac(a2-6)Gal(b1-4)GlcNAc(b1-2)Man(a1-6)]Man(b1-4)GlcNAc(b1-4)[Fuc(a1-6)]GlcNAc
# How it was run: as §1
# [32] = target: Neu5Ac(a2-6)Gal(b1-4)GlcNAc(b1-2)Man(a1-6)Man(b1-4)GlcNAc(b1-4)GlcNAc
# How it was run: as §1
# [33] = target: Neu5Ac(a2-6)Gal(b1-4)GlcNAc(b1-2)Man(a1-6)[Gal(b1-4)GlcNAc(b1-2)Man(a1-3)]Man(b1-4)GlcNAc(b1-4)GlcNAc
# How it was run: as §1
# [34] = target: Neu5Ac(a2-6)Gal(b1-4)GlcNAc(b1-2)Man(a1-6)[GlcNAc(b1-2)Man(a1-3)]Man(b1-4)GlcNAc(b1-4)GlcNAc
# How it was run: as §1
# [35] = target: Neu5Ac(a2-6)Gal(b1-4)GlcNAc(b1-2)Man(a1-6)[Man(a1-3)]Man(b1-4)GlcNAc(b1-4)GlcNAc
# How it was run: as §1
# [36] = target: Neu5Ac(a2-6)Gal(b1-4)GlcNAc(b1-2)[Neu5Ac(a2-6)Gal(b1-4)GlcNAc(b1-4)]Man(a1-3)[GlcNAc(b1-4)][Neu5Ac(a2-6)Gal(b1-4)GlcNAc(b1-2)[Neu5Ac(a2-6)Gal(b1-4)GlcNAc(b1-6)]Man(a1-6)]Man(b1-4)GlcNAc(b1-4)GlcNAc
# How it was run: as §1
# [37] = target: Neu5Ac(a2-6)Gal(b1-4)GlcNAc(b1-2)[Neu5Ac(a2-6)Gal(b1-4)GlcNAc(b1-4)]Man(a1-3)[GlcNAc(b1-4)][Neu5Ac(a2-6)Gal(b1-4)GlcNAc(b1-4)Man(a1-6)]Man(b1-4)GlcNAc(b1-4)GlcNAc
# How it was run: as §1
# [38] = target: Neu5Ac(a2-6)Gal(b1-4)GlcNAc(b1-2)[Neu5Ac(a2-6)Gal(b1-4)GlcNAc(b1-6)]Man(a1-6)[Neu5Ac(a2-6)Gal(b1-4)GlcNAc(b1-2)Man(a1-3)][GlcNAc(b1-4)]Man(b1-4)GlcNAc(b1-4)GlcNAc
# How it was run: as §1
# [39] = target: Neu5Ac(a2-6)Gal(b1-4)GlcNAc(b1-3)Gal(b1-3)GlcNAc
# How it was run: as §1
# [40] = target: Neu5Ac(a2-6)Gal(b1-4)GlcNAc(b1-3)Gal(b1-4)GlcNAc
# How it was run: as §1
# [41] = target: Neu5Ac(a2-6)Gal(b1-4)GlcNAc(b1-3)Gal(b1-4)GlcNAc(b1-2)Man(a1-3)[Neu5Ac(a2-6)Gal(b1-4)GlcNAc(b1-3)Gal(b1-4)GlcNAc(b1-2)Man(a1-6)]GalNAc
# How it was run: as §1
# [42] = target: Neu5Ac(a2-6)Gal(b1-4)GlcNAc(b1-3)Gal(b1-4)GlcNAc(b1-3)Gal(b1-4)GlcNAc
# How it was run: as §1
binder,measurement,setting,value
B1,glycan array binding signal (z-score),[1],0.224
same,glycan array binding signal (z-score),[2],-0.107
same,glycan array binding signal (z-score),[3],-0.358
same,glycan array binding signal (z-score),[4],-0.377
same,glycan array binding signal (z-score),[5],-0.393
same,glycan array binding signal (z-score),[6],-0.365
same,glycan array binding signal (z-score),[7],-0.36
same,glycan array binding signal (z-score),[8],0.04
same,glycan array binding signal (z-score),[9],-0.372
same,glycan array binding signal (z-score),[10],-0.032
same,glycan array binding signal (z-score),[11],0.564
same,glycan array binding signal (z-score),[12],0.189
same,glycan array binding signal (z-score),[13],-0.338
same,glycan array binding signal (z-score),[14],-0.352
same,glycan array binding signal (z-score),[15],-0.383
same,glycan array binding signal (z-score),Neu5Ac(a2-3)GalNAc,-0.389
same,glycan array binding signal (z-score),[16],-0.329
same,glycan array binding signal (z-score),[17],0.788
same,glycan array binding signal (z-score),[18],-0.363
same,glycan array binding signal (z-score),[19],-0.067
same,glycan array binding signal (z-score),[20],-0.34
same,glycan array binding signal (z-score),Neu5Ac(a2-6)Gal,0.265
same,glycan array binding signal (z-score),[21],-0.243
same,glycan array binding signal (z-score),Neu5Ac(a2-6)Gal(b1-4)Glc,-0.35
same,glycan array binding signal (z-score),[22],-0.342
same,glycan array binding signal (z-score),[23],-0.32
same,glycan array binding signal (z-score),[24],-0.373
same,glycan array binding signal (z-score),[25],0.102
same,glycan array binding signal (z-score),[26],-0.356
same,glycan array binding signal (z-score),[27],-0.321
same,glycan array binding signal (z-score),[28],1.81
same,glycan array binding signal (z-score),[29],-0.201
same,glycan array binding signal (z-score),[30],-0.039
same,glycan array binding signal (z-score),[31],0.269
same,glycan array binding signal (z-score),[32],0.297
same,glycan array binding signal (z-score),[33],0.657
same,glycan array binding signal (z-score),[34],-0.384
same,glycan array binding signal (z-score),[35],5.2
same,glycan array binding signal (z-score),[36],-0.083
same,glycan array binding signal (z-score),[37],1.12
same,glycan array binding signal (z-score),[38],1.38
same,glycan array binding signal (z-score),[39],-0.34
same,glycan array binding signal (z-score),[40],-0.361
same,glycan array binding signal (z-score),[41],0.625
same,glycan array binding signal (z-score),[42],-0.38
